From PubChem BioAssay AID485297 (National Center for Advancing Translational Sciences (NCATS), 2010)
In all, about 320,000 compounds went through this assay and about 9,100 (2.8%) were called active. Inconclusive means that the source gave no clear call. Such entries were picked first, then a sample of the others. Calls come from the whole dose curve; as a rule, active = well fitted activation curve with a large enough effect; inconclusive = small, poorly fitted or top-dose-only effect; inactive = no such curve, though single readings can be large or run the other way. No potency is given beside an inconclusive call; the fits are too rough.

test: qHTS Assay for Rab9 Promoter Activators; conditions: Huh7 Rab9 promoter-luciferase reporter, luminescence, 24 h; series mostly up to 9.22 µM; activation, negative = inhibition: at the top concentration; note: nearly all actives have a fitted effect of over 60% in size; for activation, negative = inhibition: % of control where 0% means no effect
In short: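 Cells were plated at 1500 per well in reduced-serum medium with 10% FBS and left 2 h. Compound in DMSO was then added for 24 h at 37 °C. Reporter signal was read by luminescence after 10 min with luciferase detection reagent.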
Potency is the fitted concentration of half-maximal effect; tags give direction and shape of the fitted curve.

Row | SMILES | Potency | activation, negative = inhibition
1 | O=C(N/N=C/c1ccccc1)c1ccc2c(c1)OCO2 | active: 0.398 µM | 
2 | COc1ccc(C)cc1NC(=O)C(OC(=O)CNC(=O)c1ccc(Br)cc1)c1ccccc1 (configuration not stated) |  | inactive: -3.89%
3 | CN1N=C(/C=C/c2ccccc2)CCC1=O | inconclusive [activator, partial curve] | 
4 | Cc1nc2ccc(NC(=O)CCC3CCCC3)cc2s1 | inconclusive [activator, partial curve] | 
5 | CCc1nc(-c2cc3ccc(C)cc3[nH]c2=O)no1 | inconclusive [activator, partial curve] | 
6 | O=c1c2ccccc2nc2sc(Nc3ccc(F)cc3)nn12 | inconclusive [activator, single point] | 
7 | Cc1ccc2sc(NC(=O)c3ccc(N4C(=O)CCC4=O)cc3)nc2c1C |  | inactive: -11.4%
8 | O=C(CCCC(=O)c1ccc(O)cc1)c1ccc(O)cc1 | inconclusive [activator, single point] | 
9 | COc1ccc(/C=N/Nc2ccccn2)cc1O | inconclusive [activator, single point] | 
10 | CCOC(=O)/C(=C/c1ccc(N2CCC(c3ccccc3)=N2)cc1)C(C)=O | inconclusive [activator, single point] | 
11 | Oc1c(C=Nc2cccc3cccnc23)sc2ccccc12 |  | inactive: -19.8%
12 | COc1ccc(NC(=O)COc2ccc(/C=N/O)cc2OC)cc1 | inconclusive [activator, single point] | 
13 | CCCC(=O)N1c2ccc(-c3csc(N)n3)cc2CC1C (configuration not stated) | active: 2.82 µM | 
14 | CN(CC(=O)Nc1ccc(N2CCOCC2)cc1)C(=O)c1cc(S(=O)(=O)N(C)C)ccc1Cl |  | inactive: -0.337%
15 | O=C(CSc1ccc2c(c1)OCCO2)N1CCN(c2ccccc2)CC1 |  | inactive: -6.58%
16 | CC(=O)c1ccc(Oc2ccc(C(C)=O)cc2)cc1 | inconclusive [activator, single point] | 
17 | COc1ccc(-n2nc(C(=O)NCC(=O)NCCc3ccc(OC)c(OC)c3)c3ccccc3c2=O)cc1Cl |  | inactive: -3.4%
18 | COc1ccc2cc(C(=O)NCC3CCCO3)[nH]c2c1 (configuration not stated) | inconclusive [activator, partial curve, poor fit] | 
19 | COc1ccc2c(c1)Cc1sc(NC(=O)c3cccs3)nc1-2 | active: 2.82 µM | 
20 | CC(=O)Nc1ccc(S(=O)(=O)Nn2cnnc2)cc1 | inconclusive [activator, single point] | 
21 | COc1ccc(Nc2nc(N)nc(CSc3nncn3C)n2)cc1 | inconclusive [activator, partial curve] | 
22 | Clc1ccc(-c2csc(N/N=C/c3ccco3)n2)cc1 | inconclusive [activator, single point] | 
23 | O=C(CSc1ccc(-c2ccccc2)nn1)c1cccs1 | inconclusive [activator, partial curve] | 
24 | CCOc1ccc(C2C(C(=O)c3cccs3)=C(O)C(=O)N2CCN2CCOCC2)cc1 (configuration not stated) |  | inactive: -0.21%

Row | SMILES | Potency | activation, negative = inhibition
25 | Cc1ccc2cc(NC(=O)c3ccc(C(C)(C)C)cc3)ccc2n1 |  | inactive: 1.74%
26 | FC(F)(F)c1cccc(N/N=C/c2ccccc2)c1 | inconclusive [activator, single point] | 
27 | O=C(Nc1cc2ccccc2oc1=O)c1ccccc1 | active: 0.178 µM | 
28 | COc1ccc(NC(=O)c2sccc2C)c([N+](=O)[O-])c1 | inconclusive [activator, single point] | 
29 | O=C(CSc1nnc2sc3ccccc3n12)c1ccco1 | inconclusive [activator, partial curve] | 
30 | Cc1ccc(OCc2ccc(C(=O)Nc3nccs3)o2)cc1C | inconclusive [activator, partial curve] | 
31 | CCc1ccc(NC(=O)CSc2nncn2-c2cccnc2)cc1 | inconclusive [activator, partial curve] | 
32 | O=C(c1c(F)cccc1F)N1CCCC(c2nc(-c3cccs3)no2)C1 (configuration not stated) | inconclusive [activator, partial curve] | 
33 | Cc1nn(-c2ccccc2)c(C)c1C(=O)OCC(=O)Nc1ccccc1 | inconclusive [activator, single point] | 
34 | O=[N+]([O-])c1cccc(N/N=C/c2cc([N+](=O)[O-])ccc2O)c1 |  | inactive: 29.7%
35 | CN(C)/C=C(\C(=O)c1cccc(Cl)c1)c1nnnn1-c1ccccc1 |  | inactive: 2.38%
36 | CC1CCN(C(=O)CCc2nnc(-c3ccccc3)o2)CC1 | inconclusive [activator, partial curve] | 
37 | CCOC(=O)/C(C#N)=C1/C=C(C)c2ccccc2N1 | inconclusive [activator, single point] | 
38 | Cn1c(=O)[nH]c2nnc(-c3ccc(Cl)c(Cl)c3)nc2c1=O | inconclusive [activator, partial curve] | 
39 | O=c1oc2ccccc2c(Nc2cc3ccccc3cc2O)c1[N+](=O)[O-] | inconclusive [activator, full curve, poor fit] | 
40 | COc1ccc(-c2nnc(SCC(=O)NC3CCCCC3)o2)cc1 |  | inactive: 2.21%
41 | Cc1cc(-c2n[nH]c(=S)n2/N=C/C(Cl)=C/c2ccccc2)n[nH]1 | inconclusive [activator, single point] | 
42 | CC(=O)Nc1ccc2nc(-c3ccco3)[nH]c2c1 | inconclusive [activator, single point] | 
43 | C=CCNC(=O)COc1ccc(Br)cc1Cl | inconclusive [activator, partial curve] | 
44 | COc1ccc(N2CCN(C(=O)CNC(=O)Cn3cnc4sc(C)c(C)c4c3=O)CC2)cc1 |  | inactive: 0.213%
45 | CC(=O)Nc1ccc(-c2csc(NC(=O)C3=COCCO3)n2)cc1 | inconclusive [activator, partial curve] | 
46 | CCOC(=O)C(C)On1c(-c2ccccc2)nc2ccc([N+](=O)[O-])cc21 (configuration not stated) | inconclusive [activator, partial curve] | 
47 | Cc1ccc2c(c1)C(=NC1CCCCC1)c1cc3ccccc3nc1-2 | inconclusive [activator, single point] | 
